# Article PMC12040169 (PLOS Biology, 2025)
# This is one part of the list.
# Test system: T1, C. trachomatis L2/434/Bu expressing GFP (CTL2-GFP)
# T1 construct: L2/434/Bu GFP intracellular growth in HeLa cells
# Set-up: species or system HeLa; C. trachomatis total inclusion area by high-content imaging, normalised to DMSO
# Details: total inclusion area; 28.5 h, 10 µM; inhibitor
# Procedure, shortened: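 High-content imaging followed the bulk GFP/resorufin measurement: fixed, Hoechst-stained cells were scored for GFP inclusions and host nuclei per well. Total inclusion area and count served as growth proxies, nuclei number as the viability proxy. MIC calculation matched the bulk assay.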
row,SMILES,% of control remaining
1,NC(=O)c1sc2cc(C(F)(F)F)cnc2c1-c1cccs1 [CBK089891],75.3165
2,CCN(CC)S(=O)(=O)c1ccc(C(=O)NCc2ccc(OC)cc2)cc1 [CBK305844],29.5292
3,OC(CNCc1ccc2c(c1)OCO2)COc1ccc(SC(F)(F)F)cc1 (centres unmarked) [CBK074691],95.6566
4,CCCCOc1ccc(NC(=O)Nc2cc3cccnc3c(Br)n2)cc1 [CBK063291],49.4388
5,CCOC(=O)CN1CCC(Oc2nccnc2OCc2cc(C)on2)CC1 [CBK082960T],134.67
6,Cc1ccc(C(=O)C2CCN(S(=O)(=O)c3ccc(Cl)c(Cl)c3)CC2)cc1 [CBK019294],90.4865
7,CC1(C)[C@H](Cc2cc(CO)on2)C[C@@H]1N(Cc1ccncc1)Cc1ccncc1 [CBK289233],113.965
8,CS(=O)(=O)NC1CCN(C2CCc3c(F)cc(F)cc32)C1 (centres unmarked) [CBK305101],78.1441
9,CCCC(=O)Nc1ccc(C(=O)N2CCN(C)CC2)cc1 [CBK304337],100.274
10,COC(=O)c1ccc(/C=N/NC(=O)CCc2c(C)n[nH]c2C)cc1 [CBK262904],71.1492
11,CCOc1ccc(Cl)cc1CNc1nnnn1CC [CBK288128],87.4896
12,CCCC(=O)N1CCC(c2nc(C3CCCC3)no2)C1 (centres unmarked) [CBK285457],85.8624
13,O=C(Nc1ccc(N2CCCCC2)c(F)c1)C1CC(=O)N(C2CC2)C1 (centres unmarked) [CBK281387],82.486
14,O=C([C@@H]1Cc2[nH]cnc2CN1Cc1cc2ccccc2o1)N1CCOCC1 [CBK288977],126.864
15,Cc1oc(C(=O)Nc2ccc(C(=O)O)cc2)cc1COc1ccccc1 [CBK263273],92.8918
16,CCN(CC)C(=O)C1CCCN(C(=O)NCc2cnc(C)cn2)C1 (centres unmarked) [CBK156122],90.0565
17,N#Cc1nc(-c2ccco2)oc1N1CCN(C(=O)c2cc3c(s2)CCCCC3)CC1 [CBK240763],62.791
18,CC(=O)N(C)c1nc(-c2cccc(N(C)C)c2)ccc1C(=O)NC1CCS(=O)(=O)C1 (centres unmarked) [CBK076590],88.0359
19,CCn1c(=O)oc2cc(NC(=O)NCCCc3csc(N)n3)ccc21 [CBK307633],56.8752
20,O=C(N/N=C/c1c[nH]c2ccccc12)c1cc(-c2ccc3ccccc3c2)n[nH]1 [CBK262885],10.5096
21,Cc1cccnc1C(NC(=O)C1CCN(CCOc2ccccc2)CC1)c1ccc(F)cc1 (centres unmarked) [CBK147892],102.716
22,c1ccc(CCCN2CCN(C3CCN(Cc4ccccc4)CC3)CC2)cc1 [CBK263457],89.0261
23,O=C1N=C(NC2CC3CCC2C3)SC12CCC2 (centres unmarked) [CBK073933],139.338
24,COc1cccc(NC(=O)CN(c2cccc(C(C)=O)c2)S(C)(=O)=O)c1 [CBK267502],107.326
25,CC(C)(C)C(=O)N[C@H]1C[C@@H](Cc2cc(CO)on2)C1(C)C [CBK289260],100.285
26,Cc1nn2c(=O)cc(C(=O)O)[nH]c2c1-c1ccccc1 [CBK287129],102.47
27,Clc1ccccc1CSc1nc[nH]n1 [CBK026950],83.3673

row,SMILES,% of control remaining
1,Cc1ccc(S(=O)(=O)c2cccc(S(N)(=O)=O)c2)cc1S(N)(=O)=O [CBK264535],105.543
2,COC(=O)c1ccccc1NC(=O)C(C)Oc1ccc(Cl)cc1C (centres unmarked) [CBK262388],99.4942
3,COC(=O)c1ccsc1NS(=O)(=O)c1cc(F)c(Br)cc1F [CBK039068],101.169
4,COCCc1noc(CC2CCN(c3ncncc3C#N)CC2)n1 [CBK304178],85.2791
5,CCOc1cc(/C=C2\N=C(c3ccc(OC)cc3)OC2=O)cc(Br)c1OCC(=O)OC [CBK102552],110.109
6,O=C(Nc1ccc(-c2nc3cc(-c4nc5cc(NC(=O)c6cccs6)ccc5[nH]4)ccc3[nH]2)cc1)c1cccs1 [CBK261614],71.4818
7,O=C(NCCCn1ccnc1)c1cc2c(ccc3ccccc32)oc1=O [CBK263543],81.137
8,Cn1c(=O)c2c(nc(NCCOCCO)n2C)n(C)c1=O [CBK288164],91.0923
9,Cc1nn(-c2ccc(N3CCNCC3)nn2)c(=O)c2ccccc12 [CBK270067],118.846
10,CCn1c(=O)n(CC(=O)NCc2cccc(F)c2)c2cccnc21 [CBK283891],86.1889
11,CCC1CCCN(C(=O)Cc2c(C)nc(-c3cccnc3)[nH]c2=O)C1 (centres unmarked) [CBK305801],104.253
12,Cc1cccc(C)c1N1C(=O)c2ccccc2NC12C(=O)Nc1ccc([N+](=O)[O-])cc12 (centres unmarked) [CBK103749],94.9036
13,N#CCCc1ccc(Oc2ncc(C(F)(F)F)cc2Cl)cc1 [CBK161635],104.733
14,CN1CCN(C)C(COc2ccc(C(F)(F)F)cn2)C1 (centres unmarked) [CBK113288],97.662
15,O=C(O)c1ccc(CN2CCC3(C/C=C/CNC(=O)c4ccccc4OCCNC3=O)CC2)cc1 [CBK292002],95.5883
16,CNc1nc(C2CCN(C(=O)c3ccc(N4CCC(C)CC4)cc3)C2)nc2c1CCN(C)C2 (centres unmarked) [CBK285835],102.963
17,CCNC(=O)N1CCC(Oc2cc(C)ccc2F)(C(=O)O)CC1 [CBK307147],97.4877
18,CCN(CCC(F)(F)F)C(=O)Cc1csc(NC(=O)c2ccoc2C)n1 [CBK305729],73.4743
19,CC(=O)Nc1ccc(N2CCN(CCO)CC2)cc1OCCCOc1ccccc1 [CBK074317T],61.6541
20,Cn1c(=O)c2c(nc(CN3CCCCC3)n2CC(=O)c2ccccc2)n(C)c1=O [CBK269563],117.568
21,COc1cccc(OCC2CCCN(C(=O)CCc3cnn(C)c3)C2)c1 (centres unmarked) [CBK306931],74.6062
22,CCCS(=O)(=O)n1c(=O)n(Cc2ccc(OC)cc2)c2ccccc21 [CBK106553],122.051
23,CC1CCN(CC(O)c2ccc3c(c2)CCN3C(=O)C2CC2)CC1 (centres unmarked) [CBK282927],85.756
24,O=C1Nc2ccc(-c3ccccc3F)cc2C(=O)N2CCN(C(=O)C3CCNCC3)C[C@H]12 [CBK289592],124.265
25,O=C(O)c1cccc(Nc2nc(Nc3ccccc3)nc(N3CCCC3)n2)c1 [CBK286863],105.827
26,CCCC(=O)NCC(C)c1nsc(NS(=O)(=O)c2cccc(Cl)c2C)n1 (centres unmarked) [CBK200053],78.8916
27,Cc1cc(C)n(-c2ccccc2O)n1 [CBK026493],27.991

row,SMILES,% of control remaining
1,COc1ccc2c(c1)nc1n2CCC1OC(C)=O (centres unmarked) [CBK115379],102.574
2,OCCOc1ccc(Cl)c2cccnc12 [CBK000620],99.9011
3,CN1CCN(CC(=O)Nc2cc(N3CCOCC3)ccc2[N+](=O)[O-])CC1 [CBK047475],86.3858
4,O=C(O)c1cnc(Cl)c(Br)c1 [CBK026874],26.7072
5,O=[N+]([O-])c1ccc(OCCCNCCO)cc1 [CBK262244],96.3624
6,Cc1nnc(NC(=O)C2CCN(C(=O)c3cccc(F)c3)CC2)s1 [CBK307588],75.0424
7,COC(=O)c1cc(CN2CCCN(S(=O)(=O)c3ccc(C(=O)c4ccccc4)cc3)CC2)cn1C [CBK062770],82.6858
8,O=C(c1cccs1)N1CCOC(Cn2ccnc2)C1 (centres unmarked) [CBK282256],75.2027
9,Cc1c(Cl)cccc1NC(=O)c1cnc2scc(C)n2c1=O [CBK287463],86.1825
10,CC(=O)N1C[C@@H](N(C)C)[C@H](c2cn(C)c3ccccc23)C1 [CBK285007],105.805
11,CCOc1ccc(C(=O)NC2CC3CCC(C2)N3Cc2ccc(OC)cc2)cc1 (centres unmarked) [CBK121398],96.3892
12,CSCCC(NC(=O)c1ccc(C#CC(C)(C)O)cc1)C(=O)O (centres unmarked) [CBK276698],89.6187
13,CC(=O)N(C)c1nc(-c2ccco2)ccc1C(=O)Nc1cc(C)nn1C [CBK106356],107.252
14,CCOC(=O)CN1CCC(Oc2cncc(Oc3ccc(OC)c(OC)c3)n2)C1 (centres unmarked) [CBK084405],94.5036
15,COCCn1c(SC(C)C(=O)NC2CC2)nc2ccc(Br)cc2c1=O (centres unmarked) [CBK305481],53.1054
16,COc1ccc(C)cc1NS(=O)(=O)CC(C)C [CBK111346],50.3339
17,O=C(NCc1c(F)cccc1F)C1(c2ccccc2)CCCC1 [CBK149527],70.9673
18,COc1cc(CN2CCNCC2)c2ccn(S(=O)(=O)c3cccc(Cl)c3C)c2c1 [CBK144484T],23.8755
19,O=C(Nn1cnnc1)c1cccc(C(=O)Nn2cnnc2)c1 [CBK091759],98.8264
20,Cn1c(-c2ccc(-c3nc4cnccc4n3C)cc2)nc2cnccc21 [CBK261423],104.433
21,CCSc1nc(SCC)c2c3c([nH]c2n1)CCCC3 [CBK019936],36.2037
22,Cc1ccc(OCC(O)CN(C)S(=O)(=O)O)c([N+](=O)[O-])c1 (centres unmarked) [CBK262062K],88.066
23,CN1CCN(c2ccc(-c3cc(NC4CCCCC4)ncn3)cn2)CC1 [CBK090899],74.0196
24,COc1ccc(CCNC(=O)CCCc2cn(C)c3ccccc23)cc1OC [CBK061740],98.1891
25,O[C@H]1[C@H](NCC2CC2)[C@H]2CO[C@H](O2)[C@@H]1N1CCOCC1 [CBK288819],101.815
26,CCCS(=O)(=O)N1Cc2c(ncn2C)C[C@H]1C(=O)OC [CBK288991],101.959
